The other results are listed elsewhere or left out. These are noisy estimates, calculated here from bound and input reads.

These results are taken from the BET-seq Pho4 binding data (Le et al. 2018).

The experiment deals with T1, Pho4 (S. cerevisiae) (UniProt P07270).
T1 sequence: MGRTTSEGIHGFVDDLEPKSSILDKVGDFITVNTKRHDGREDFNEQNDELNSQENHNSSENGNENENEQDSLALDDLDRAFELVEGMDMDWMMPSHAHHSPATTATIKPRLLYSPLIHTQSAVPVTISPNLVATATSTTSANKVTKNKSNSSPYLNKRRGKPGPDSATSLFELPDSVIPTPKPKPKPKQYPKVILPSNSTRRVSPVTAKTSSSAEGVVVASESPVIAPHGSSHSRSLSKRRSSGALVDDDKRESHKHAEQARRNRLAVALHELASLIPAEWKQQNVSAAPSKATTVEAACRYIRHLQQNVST
The experiment is described as follows: relative binding free energy (BET-seq); higher = weaker binding. The following applies: reference: library average.
Regarding TTGATCACGTGTAACG, the “relative binding free energy” value is 0.37 kcal/mol. Regarding AGTCGCACGTGAATGG, the “relative binding free energy” value is 0.23 kcal/mol. Take TTTCGCACGTGGATTT: the “relative binding free energy” value was -0.15 kcal/mol. Regarding GGAGGCACGTGTAGGC, the “relative binding free energy” value was -0.08 kcal/mol. With GGTGTCACGTGTTATA, the “relative binding free energy” value was determined as 0.17 kcal/mol.

As for ACGGTCACGTGTATTT, the “relative binding free energy” value came out at 0.16 kcal/mol. For GATTGCACGTGGAAGG, the “relative binding free energy” value is -0.02 kcal/mol. For the sequence GTGGGCACGTGATTTG, the “relative binding free energy” value stood at 0.13 kcal/mol.

Turning to TAATTCACGTGGGCCT, the “relative binding free energy” value came out at 0.23 kcal/mol. On to GGCGTCACGTGAGGGG, for which the “relative binding free energy” value turned out to be 0.28 kcal/mol.

As to GCGTTCACGTGCTTGT, the “relative binding free energy” value turned out to be 0.19 kcal/mol. In the case of CGGGACACGTGGCGGG, the “relative binding free energy” value is -0.1 kcal/mol. Regarding GTCGGCACGTGGAAAG, the “relative binding free energy” value worked out at 0.09 kcal/mol. As for CTTGGCACGTGGGGAT, the figure is -0.12 kcal/mol.

As for TTCAGCACGTGGGTAG, the “relative binding free energy” value was -0.12 kcal/mol. In the case of TTGATCACGTGAGGCT it was 0.28 kcal/mol; in that of TTGTCCACGTGATTTG, 0.19 kcal/mol. Turning to TGGAGCACGTGAGGGT, the “relative binding free energy” value was 0.13 kcal/mol. GGTTCCACGTGGCGAG: the “relative binding free energy” value stood at 0.16 kcal/mol. On to TTGGTCACGTGCTAGA, for which the “relative binding free energy” value amounted to 0.14 kcal/mol. For the sequence TATAACACGTGTATGG, the “relative binding free energy” value is -0.16 kcal/mol. For TTGGCCACGTGTTGAG, the “relative binding free energy” value is -0.06 kcal/mol. Regarding GGATACACGTGGAGTT, the “relative binding free energy” value came to 0.09 kcal/mol. GTGTTCACGTGTTGGA: the “relative binding free energy” value came to 0.27 kcal/mol. As for GTGTGCACGTGAGAGG, the figure is 0.37 kcal/mol; as for AATTTCACGTGTCAGT, 0.43 kcal/mol; as for GTCGGCACGTGGGATG, -0.09 kcal/mol. Regarding GTTGGCACGTGCGAGC, the “relative binding free energy” value was -0.08 kcal/mol.

For the sequence ATGAGCACGTGGATTG, the “relative binding free energy” value stood at 0.04 kcal/mol. Consider TTTAACACGTGTAGGA, for which the “relative binding free energy” value turned out to be 0.02 kcal/mol. Consider TATGGCACGTGAAGCT, for which the “relative binding free energy” value was found to be 0.23 kcal/mol. GGGCACACGTGGGGTT: the “relative binding free energy” value is -0.02 kcal/mol. Consider TGGTACACGTGTGGCT, for which the “relative binding free energy” value stood at 0.07 kcal/mol. Take TCATTCACGTGAGGTT: the “relative binding free energy” value is 0.3 kcal/mol. AGGTGCACGTGGGCAG: the “relative binding free energy” value is -0.26 kcal/mol. Take GAAGTCACGTGCGTTG: the “relative binding free energy” value was 0.07 kcal/mol. In the case of ATTGGCACGTGGAGTC, the “relative binding free energy” value was -0.14 kcal/mol. For the sequence ATGGTCACGTGAGGCC, the “relative binding free energy” value was found to be 0.31 kcal/mol.

On to GATTTCACGTGGTGAG, for which the “relative binding free energy” value turned out to be 0.29 kcal/mol. In the case of TGAATCACGTGTGGTA it was 0.27 kcal/mol; in that of TGGCCCACGTGGGTTA, -0.19 kcal/mol.

As to GCGTACACGTGTTTTG, the “relative binding free energy” value worked out at 0.01 kcal/mol. Turning to ACTGTCACGTGAGTGT, the “relative binding free energy” value stood at 0.17 kcal/mol.

Take CTCTGCACGTGAGTGT: the “relative binding free energy” value was 0.15 kcal/mol.

Turning to GACGTCACGTGGTTTT, the “relative binding free energy” value turned out to be 0.07 kcal/mol. As for ATGATCACGTGTAGGT, the figure is 0.15 kcal/mol. With TTTTACACGTGGGAGG, the “relative binding free energy” value came out at 0.13 kcal/mol. For the sequence TAGACCACGTGGGTTA, the “relative binding free energy” value was -0.06 kcal/mol.

As for GGCTGCACGTGTACGG, the “relative binding free energy” value was found to be 0.15 kcal/mol. As for CAGGGCACGTGAGTTT, the figure is 0.09 kcal/mol; as for TCTGTCACGTGTGTGT, 0.14 kcal/mol; as for GGTTTCACGTGTATGG, 0.32 kcal/mol. In the case of CATAGCACGTGGGATG, the “relative binding free energy” value was -0.23 kcal/mol. For the sequence ATACGCACGTGAGGGT, the “relative binding free energy” value is 0.07 kcal/mol. Take AGAGACACGTGTGGTT: the “relative binding free energy” value is -0.03 kcal/mol.

With ACTCGCACGTGTGGTT, the “relative binding free energy” value is -0.02 kcal/mol. For TGATACACGTGTCGTA, the “relative binding free energy” value was 0.05 kcal/mol. As for TCAGGCACGTGTTGGA, the figure is 0 kcal/mol; as for CTTTCCACGTGTGGGT, 0.2 kcal/mol.

In the case of GATGGCACGTGTAGGT, the “relative binding free energy” value stood at 0.1 kcal/mol. As to CGGTCCACGTGGGGAT, the “relative binding free energy” value was -0.04 kcal/mol.

Regarding AAAAACACGTGGGTTT, the “relative binding free energy” value is -0.02 kcal/mol. In the case of GGGCACACGTGATTTG it was 0.25 kcal/mol. Regarding GCGGACACGTGGGATT, the “relative binding free energy” value amounted to 0 kcal/mol. Turning to GCAGTCACGTGGTGGA, the “relative binding free energy” value is 0.02 kcal/mol. GTTTACACGTGAAAGG: the “relative binding free energy” value was determined as 0.53 kcal/mol. Turning to TAGGCCACGTGGTAGG, the “relative binding free energy” value was -0.2 kcal/mol.

Consider CGGGGCACGTGGTCGA, for which the “relative binding free energy” value is -0.17 kcal/mol.

For ATTGCCACGTGTGGGA, the “relative binding free energy” value is -0.01 kcal/mol.

For TTCGACACGTGTTTAG, the “relative binding free energy” value was determined as 0.16 kcal/mol. For the sequence GGGGACACGTGAAGGG, the “relative binding free energy” value is 0.23 kcal/mol.

For AGTGGCACGTGAGGCG, the “relative binding free energy” value turned out to be 0.04 kcal/mol.

As for GTAAACACGTGGGTTG, the “relative binding free energy” value was -0.12 kcal/mol. Regarding TGCGGCACGTGTCGGT, the “relative binding free energy” value was -0.16 kcal/mol. Take AATTTCACGTGGTGCA: the “relative binding free energy” value was determined as 0.26 kcal/mol. With TTATTCACGTGAGTTT, the “relative binding free energy” value is 0.38 kcal/mol. For the sequence AGTGGCACGTGGCGGG, the “relative binding free energy” value is -0.1 kcal/mol. In the case of GTGGCCACGTGTTAGG, the “relative binding free energy” value was -0.01 kcal/mol. On to GGTAGCACGTGTGTGC, for which the “relative binding free energy” value is 0.04 kcal/mol. For the sequence TGGGTCACGTGGCTTC, the “relative binding free energy” value worked out at 0.09 kcal/mol. As for TTGTGCACGTGGCTGT, the “relative binding free energy” value was -0.15 kcal/mol.

Take ATGTTCACGTGTTGTT: the “relative binding free energy” value was 0.21 kcal/mol. On to AGTGGCACGTGTAGAT, for which the “relative binding free energy” value is -0.05 kcal/mol.

With TTTTACACGTGTGGCG, the “relative binding free energy” value turned out to be 0.18 kcal/mol. Take CTGGGCACGTGACTGG: the “relative binding free energy” value is -0.14 kcal/mol. As for TGTTGCACGTGTTTAT, the “relative binding free energy” value amounted to 0.01 kcal/mol. As for ATTTGCACGTGAGGTC, the figure is 0.13 kcal/mol.

On to TCGTGCACGTGATTGG, for which the “relative binding free energy” value is -0.02 kcal/mol. As for GTGTGCACGTGCCTGG, the figure is -0.13 kcal/mol.

In the case of GATTTCACGTGGCTTG, the “relative binding free energy” value was found to be 0.33 kcal/mol. With CGGATCACGTGGAGTG, the “relative binding free energy” value was found to be 0 kcal/mol. In the case of TAGTGCACGTGTATAG, the “relative binding free energy” value was -0.05 kcal/mol. As for CGGCTCACGTGGGTGT, the “relative binding free energy” value was found to be 0.19 kcal/mol. On to TAGTTCACGTGCGTTG, for which the “relative binding free energy” value is 0.19 kcal/mol. In the case of GAGTACACGTGGTAGG, the “relative binding free energy” value was found to be 0.09 kcal/mol. For AGGTTCACGTGACGGC, the “relative binding free energy” value worked out at 0.39 kcal/mol. In the case of TTGGTCACGTGATTAG it was 0.28 kcal/mol.

Turning to TTGTTCACGTGGCCTG, the “relative binding free energy” value was determined as 0.12 kcal/mol. Consider AGTAGCACGTGGTGTG, for which the “relative binding free energy” value was -0.12 kcal/mol. With TAGTGCACGTGGTTTT, the “relative binding free energy” value came to 0.01 kcal/mol. TACGGCACGTGAGTGG: the “relative binding free energy” value worked out at 0.17 kcal/mol. As for AGCTTCACGTGTGCTT, the figure is 0.3 kcal/mol. Regarding ATGTTCACGTGCGATT, the “relative binding free energy” value came to 0.25 kcal/mol. In the case of TGGATCACGTGAGATA it was 0.33 kcal/mol; in that of GGGGGCACGTGTCGGT, -0.04 kcal/mol; in that of AATGGCACGTGGTTAG, -0.08 kcal/mol. In the case of TTGAGCACGTGTTCGG, the “relative binding free energy” value is -0.21 kcal/mol. Regarding GTCTTCACGTGAGAGT, the “relative binding free energy” value stood at 0.35 kcal/mol.

In the case of ATTTGCACGTGAGCAT, the “relative binding free energy” value was 0.07 kcal/mol. As for ATGGGCACGTGCTGGA, the figure is -0.13 kcal/mol; as for GTGAGCACGTGTAAGG, 0.1 kcal/mol; as for ATGGCCACGTGTGGAT, 0.03 kcal/mol. On to CGTGGCACGTGCTTGG, for which the “relative binding free energy” value was -0.1 kcal/mol.

Take GAATGCACGTGGAGGT: the “relative binding free energy” value stood at 0.02 kcal/mol. In the case of GAAGTCACGTGGTTTT, the “relative binding free energy” value was determined as 0.06 kcal/mol. As for ACTTGCACGTGGTTGA, the figure is -0.07 kcal/mol; as for AGAGCCACGTGGGGTA, -0.21 kcal/mol; as for AGCTTCACGTGGGAGT, 0.22 kcal/mol. On to TGTCTCACGTGTAGGT, for which the “relative binding free energy” value was found to be 0.24 kcal/mol. For GGGATCACGTGATCTA, the “relative binding free energy” value came out at 0.47 kcal/mol. Turning to GGTTACACGTGGAGCG, the “relative binding free energy” value came to 0.11 kcal/mol. Regarding TTTAACACGTGTATTG, the “relative binding free energy” value is 0.08 kcal/mol. In the case of GTGTGCACGTGTTGGG, the “relative binding free energy” value was determined as 0.09 kcal/mol. As for TGCGTCACGTGCTTTT, the figure is -0.1 kcal/mol.

For the sequence ATAGGCACGTGATTTG, the “relative binding free energy” value is -0.08 kcal/mol. With TGGTTCACGTGTCCTT, the “relative binding free energy” value came out at 0.15 kcal/mol. Regarding GGGACCACGTGTTGGA, the “relative binding free energy” value came to 0.02 kcal/mol. Turning to GGGGACACGTGAGTGT, the “relative binding free energy” value was determined as 0.25 kcal/mol. Consider TCGGACACGTGTAGAA, for which the “relative binding free energy” value was determined as 0.39 kcal/mol. In the case of CACGTCACGTGAGGGG, the “relative binding free energy” value is 0.15 kcal/mol. In the case of TCCGACACGTGGGTTG, the “relative binding free energy” value amounted to 0.03 kcal/mol. As for AATTTCACGTGCTTGT, the figure is 0.14 kcal/mol; as for TTTATCACGTGGCAAG, 0.07 kcal/mol. Take GTGGCCACGTGCTGTT: the “relative binding free energy” value was -0.13 kcal/mol. As to GGGTACACGTGGTTAA, the “relative binding free energy” value worked out at 0.05 kcal/mol. In the case of CAGGACACGTGTTGTG, the “relative binding free energy” value was -0.06 kcal/mol. Consider TTAACCACGTGGATGG, for which the “relative binding free energy” value is 0.04 kcal/mol. Turning to ATTGGCACGTGATACG, the “relative binding free energy” value was -0.02 kcal/mol. AGGTTCACGTGACGTG: the “relative binding free energy” value amounted to 0.31 kcal/mol. TGGGACACGTGGGGAA: the “relative binding free energy” value is -0.14 kcal/mol. Take GGGCGCACGTGTTTTG: the “relative binding free energy” value stood at 0.1 kcal/mol. Consider CGGGTCACGTGGTGTG, for which the “relative binding free energy” value is 0.01 kcal/mol.

For TAATTCACGTGAGAGT, the “relative binding free energy” value came to 0.41 kcal/mol. As for TGTCGCACGTGAAGGG, the figure is 0.23 kcal/mol; as for ATGTACACGTGATGCG, 0.06 kcal/mol; as for AGAGACACGTGGTGGG, -0.1 kcal/mol.
